Test results published in PubChem BioAssay AID651820 (National Center for Advancing Translational Sciences (NCATS), 2012).
“And” between values parts separate entries of the source, which are not always exact repeats. Equal entries are not always repeated. Out of some 340,000 compounds screened, about 12,000 (3.5%) were called active. The inconclusive results got no clear call from the source; some entries with a clear call stand among them for comparison. The call rests on the fitted dose curve; in most records, active means well fitted inhibition curve with a large enough effect; inconclusive means small, poorly fitted or top-dose-only effect, or another doubt; inactive means no such curve, though single readings can be large or run the other way. A potency beside an inconclusive call is a rough fit, not a confirmed value.

test: qHTS Assay for Inhibitors of Hepatitis C Virus (HCV); settings: Huh7.5.1 HCVcc-Cre (HCVcc is cell-culture hepatitis C virus) infection, luciferase reporter, 44 h; activity change, negative = inhibition: at 41.8 µM (top of the series) unless noted
In short: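 Infectious HCV cell culture screen: compound-treated cells (1,000/well, pre-plated 4 h) are infected with HCVcc-Cre at roughly 0.5 moi and grown 44 h. Infection is quantified by luciferase signal after 15 min substrate incubation at room temperature.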
On the % scale 0 is the no-effect control and ±100 the full control effect; potency means the concentration at half of the fitted maximal effect; tags describe the fitted curve by direction and shape.

Compound	Potency	activity change, negative = inhibition
CCC1=NN2C(=N)/C(=C\c3cccn3-c3ccc(C)c(C)c3)C(=O)N=C2S1	inconclusive: 22.4 µM [inhibitor, single point]	–
CC1CCc2c(sc(NC(=O)c3cccn3C)c2C(N)=O)C1 (stereo not drawn)	inconclusive: 17.8 µM [inhibitor, partial curve]	–
CN(C)S(=O)(=O)c1ccc(NC(=S)NC(=O)Cc2ccccc2)cc1	–	inactive: 9.05%
ClCc1nnc(-c2ccccc2)o1	inconclusive: 31.6 µM [inhibitor, single point]	–
Cc1nc2c(C#N)c(-c3ccc(Cl)cc3)ccn2n1	–	inactive: 3.55%
O=C(NCCc1ccccc1)c1cccc(NC(=O)C2CC2)c1	active: 0.562 µM	–
COc1ccc(C(C(=O)NC2CCCC2)N(C(=O)c2ccoc2C)c2cc(C)cc(C)c2)cc1 (stereo not drawn)	–	inactive: -28.8%
O=C(CCl)N=c1sccn1Cc1ccc(Cl)cc1Cl	active: 0.562 µM	–
O=C(NCc1nc(-c2ccccc2)no1)c1cccs1	inconclusive: 22.4 µM [inhibitor, single point]	–
CCOc1cccc2cc(C(=O)NCc3ccc(C)cc3)c(=N)oc12	–	inactive: 13.8%
COc1ccc(/C=C/C(=O)c2ccc[nH]2)c(OC)c1OC	inconclusive: 1.41 µM [inhibitor, full curve]	–
CCn1c(CSCc2ccc(F)cc2)nnc1SCC(=O)N1CCN(c2ccccc2)CC1	inconclusive: 11.2 µM [inhibitor, partial curve]	–
C=CCN(C(=O)C1=NN(C2CCS(=O)(=O)C2)C(=O)CC1)c1nc(-c2ccc([N+](=O)[O-])cc2)cs1 (stereo not drawn)	inconclusive: 31.6 µM [inhibitor, single point]	–
CCCCOc1ccc(/C=C/C(=O)OCC(=O)NC2CCS(=O)(=O)C2)cc1OCC (stereo not drawn)	inconclusive: 31.6 µM [inhibitor, partial curve]	–
Cc1nc2ccc(NC(=O)c3ccccc3)cc2s1	–	inactive: 6.19%
CCc1nc(SCC(=O)NCC2CCCO2)c2oc3ccccc3c2n1 (stereo not drawn)	inconclusive: 11.2 µM [inhibitor, single point]	–
Cc1ccc(S(=O)(=O)NCCC(=O)NC2CC2)cc1	inconclusive: 31.6 µM [inhibitor, single point]	–
CCS(=O)(=O)N1CCC(C(=O)NCc2cccs2)CC1	inconclusive: 0.501 µM [inhibitor, full curve, poor fit]	–
O=C(NC(=S)Nc1ccccc1N1CCCC1)c1ccc(-c2cccc([N+](=O)[O-])c2)o1	inconclusive: 2.82 µM [inhibitor, partial curve]	–
CC(C)(C)c1ccc(/C=N/NC(=O)C2CCCC2)cc1	inconclusive: 15.8 µM [inhibitor, single point]	–
CN(C(=O)c1ccc(NC(=O)Cc2ccc(NC(=O)C3CCN(C(=O)C4CCCCC4)CC3)cc2)cc1)C1CC1	inconclusive: 3.55 µM [inhibitor, single point]	–
Cc1ccccc1C(=O)NNc1ncnc2c1cnn2C	inconclusive: 14.1 µM [inhibitor, single point]	–

Compound	Potency	activity change, negative = inhibition
O=C(NNc1cc(N2CCCC2)nc(N2CCCC2)n1)c1ccc([N+](=O)[O-])cc1	inconclusive: 6.31 µM [inhibitor, full curve]	–
O=C(Nc1nnc(-c2cccs2)o1)c1cc(-c2ccccc2)nc2ccccc12	inconclusive: 8.91 µM [inhibitor, partial curve]	–
O=[N+]([O-])c1ccc(N2CCN(S(=O)(=O)c3ccc(Cl)cc3)CC2)cc1NCc1cccnc1	–	inactive: 2.81%
CCN1CCN(CCOc2ccccc2OCc2ccccc2)CC1	inconclusive: 6.31 µM [inhibitor, partial curve]	–
Cc1cc2cc(C(c3nnnn3C(C)(C)C)N(Cc3ccco3)CC3CCCO3)c(=O)[nH]c2cc1C (stereo not drawn)	–	inactive: -23.9%
CCOC(=O)C1C(C(=O)OC)=C(c2ccc(F)cc2)c2ccccc2N1S(=O)(=O)C(F)(F)F (stereo not drawn)	inconclusive: 8.91 µM [inhibitor, partial curve]	–
FC(F)(F)c1ccc(Cl)c(NC(=S)N/N=C/c2ccccc2C(F)(F)F)c1	inconclusive: 14.1 µM [inhibitor, partial curve]	–
Cc1nonc1CN(C)C(=O)CC1C(=O)NCCN1Cc1cccc(C(F)(F)F)c1 (stereo not drawn)	inconclusive: 1.26 µM [inhibitor, partial curve, poor fit]	–
CC(=O)N(C)Cc1ccc(C(=O)CCl)cc1	inconclusive: 31.6 µM [inhibitor, single point]	–
Cn1nccc1C(=O)Nc1cccc(S(=O)(=O)N2CCOCC2)c1	–	inactive: 4.54%
Cn1nc(C(=O)Nc2cccc(S(=O)(=O)N3CCCC3)c2)c2ccccc2c1=O	inconclusive: 10 µM [inhibitor, single point]	–
COc1ccc(N2C(=O)C(CC(=O)Nc3ccc(F)cc3)N(CCc3cccs3)C2=O)cc1 (stereo not drawn)	inconclusive: 31.6 µM [inhibitor, single point]	–
N#Cc1c(NCCCO)nc(-c2ccccc2)c2c1CCCC2	–	inactive: -18.9%
COc1ccc(C(=O)c2ncc(C(F)(F)F)cc2Cl)cc1	–	inactive: -0.72%
COc1cc(C=O)c(-c2c(C=O)cc(OC)c3c2OCO3)c2c1OCO2	inconclusive: 31.6 µM [inhibitor, single point]	–
COc1cccc(C=NNc2nc3ccccc3s2)c1OC	inconclusive: 20 µM [inhibitor, single point]	–
Cc1nc(Nc2ccccc2C(F)(F)F)sc1C(=O)N(C)C	–	inactive: -10.9%
CC1CCCN(S(=O)(=O)c2ccc(NC(=O)Cn3nnc(-c4ccccc4F)n3)cc2)C1 (stereo not drawn)	inconclusive: 31.6 µM [inhibitor, single point] and inconclusive: 35.5 µM [inhibitor, partial curve]	–
CCc1cccc(NC(=O)C2CCCN2S(=O)(=O)c2cccc3cccnc23)c1 (stereo not drawn)	inconclusive: 31.6 µM [inhibitor, single point]	–
COc1ccc(-c2nc(CS(=O)CC(=O)NCCCN3CC(C)CC(C)C3)c(C)o2)cc1OC (stereo not drawn)	inconclusive: 31.6 µM [inhibitor, single point]	–
COC(=O)c1c(NC(NC(=O)CC(C)C)C(Cl)(Cl)Cl)sc2c1CCC2 (stereo not drawn)	inconclusive: 14.1 µM [inhibitor, partial curve, poor fit]	–
